Some of the results follow.
What follows are sequences tested against T1, MBP-FoxP1dN (Mus musculus, UniProt P58462 326-579) (assay: PD-seq (MBP pull-down with sequencing); 20 mM Tris-HCl pH 7.5, 100 mM NaCl, 1.5 mM MgCl2, 0.4 uM protein, 0.1 uM dsDNA library, 30 min, room temperature, amylose pull-down; high values mean tight binding). Settings: protein: recombinant; tags: His6-MBP; chain copies: 2; dsDNA, one strand shown.
T1 sequence: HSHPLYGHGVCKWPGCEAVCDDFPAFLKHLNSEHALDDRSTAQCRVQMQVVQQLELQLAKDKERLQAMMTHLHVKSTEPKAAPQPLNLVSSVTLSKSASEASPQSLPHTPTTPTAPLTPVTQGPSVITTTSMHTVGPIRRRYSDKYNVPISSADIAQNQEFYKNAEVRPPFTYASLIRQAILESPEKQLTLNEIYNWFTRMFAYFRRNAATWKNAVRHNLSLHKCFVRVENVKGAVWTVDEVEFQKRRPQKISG
Outline: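 A fragment of mouse FoxP3 or FoxP1 without its N-terminus, carrying a His6-MBP tag and produced in E. coli, was combined at 0.4 µM with a 0.1 µM degenerate double-stranded DNA library filled in with Klenow. The mixture sat for 30 min at room temperature in Tris pH 7.5 buffer containing NaCl and MgCl2. Protein–DNA complexes were captured on amylose resin, washed three times, and the DNA was freed with proteinase K, barcoded by PCR and sequenced on Illumina. Binding is expressed as reads-per-million enrichment of pull-down over input, with replicates pooled.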
“GATGATTGTTCTCCCAGCTGATGAATTTCCTGCCTCGAGTAAACAAATTTTCCTAATCTTTCTGTTCAAGCGCCATCTAC” was tested, and the binding signal was 0.873 RPM ratio (pull-down/input). In the case of “GATGATTGTTCTCCCAGCTGATGAATTGGTACAATCGAGTAAACAAATTTTCCTAATCTTTCTGTTCAAGCGCCATCTAC”, the binding signal is reported as 1.33 RPM ratio (pull-down/input). With “GATGATTGTTCTCCCAGCTGATGAATTAACCAGCTCGAGTAAACAAATTTTCCTAATCTTTCTGTTCAAGCGCCATCTAC” the binding signal was 0.867 RPM ratio (pull-down/input). With “GATGATTGTTCTCCCAGCTGATGAATTCGCGGAATCGAGTAAACAAATTTTCCTAATCTTTCTGTTCAAGCGCCATCTAC” the binding signal was 0.94 RPM ratio (pull-down/input). In the case of “GATGATTGTTCTCCCAGCTGATGAATTAGTGGCCTCGAGTAAACAAATTTTCCTAATCTTTCTGTTCAAGCGCCATCTAC”, the binding signal is reported as 0.931 RPM ratio (pull-down/input). “GATGATTGTTCTCCCAGCTGATGAATTGATCTTCTCGAGTAAACAAATTTTCCTAATCTTTCTGTTCAAGCGCCATCTAC” was tested, and the binding signal was 0.956 RPM ratio (pull-down/input). For “GATGATTGTTCTCCCAGCTGATGAATTAGTCTCGTCGAGTAAACAAATTTTCCTAATCTTTCTGTTCAAGCGCCATCTAC”, the binding signal was 0.886 RPM ratio (pull-down/input). With “GATGATTGTTCTCCCAGCTGATGAATTCCGTTTCTCGAGTAAACAAATTTTCCTAATCTTTCTGTTCAAGCGCCATCTAC” the binding signal was 0.886 RPM ratio (pull-down/input). In the case of “GATGATTGTTCTCCCAGCTGATGAATTTTGATGTTCGAGTAAACAAATTTTCCTAATCTTTCTGTTCAAGCGCCATCTAC”, the binding signal is reported as 1.46 RPM ratio (pull-down/input). With “GATGATTGTTCTCCCAGCTGATGAATTTCTCTCCTCGAGTAAACAAATTTTCCTAATCTTTCTGTTCAAGCGCCATCTAC” the binding signal was 0.871 RPM ratio (pull-down/input). With “GATGATTGTTCTCCCAGCTGATGAATTCCGATCGTCGAGTAAACAAATTTTCCTAATCTTTCTGTTCAAGCGCCATCTAC” the binding signal was 0.748 RPM ratio (pull-down/input). In the case of “GATGATTGTTCTCCCAGCTGATGAATTTACACTATCGAGTAAACAAATTTTCCTAATCTTTCTGTTCAAGCGCCATCTAC”, the binding signal is reported as 1.42 RPM ratio (pull-down/input). “GATGATTGTTCTCCCAGCTGATGAATTACCGGGATCGAGTAAACAAATTTTCCTAATCTTTCTGTTCAAGCGCCATCTAC” was tested, and the binding signal was 0.847 RPM ratio (pull-down/input). “GATGATTGTTCTCCCAGCTGATGAATTATAGCTATCGAGTAAACAAATTTTCCTAATCTTTCTGTTCAAGCGCCATCTAC” was tested, and the binding signal was 1.09 RPM ratio (pull-down/input). “GATGATTGTTCTCCCAGCTGATGAATTGCTCGGTTCGAGTAAACAAATTTTCCTAATCTTTCTGTTCAAGCGCCATCTAC” was tested, and the binding signal was 0.946 RPM ratio (pull-down/input). For “GATGATTGTTCTCCCAGCTGATGAATTCGCAAGATCGAGTAAACAAATTTTCCTAATCTTTCTGTTCAAGCGCCATCTAC”, the binding signal was 0.899 RPM ratio (pull-down/input). In the case of “GATGATTGTTCTCCCAGCTGATGAATTCGTACGATCGAGTAAACAAATTTTCCTAATCTTTCTGTTCAAGCGCCATCTAC”, the binding signal is reported as 0.974 RPM ratio (pull-down/input). “GATGATTGTTCTCCCAGCTGATGAATTCACCCTGTCGAGTAAACAAATTTTCCTAATCTTTCTGTTCAAGCGCCATCTAC” was tested, and the binding signal was 0.817 RPM ratio (pull-down/input).

From publication PMC12820563, “FoxP3 forms a head-to-head dimer in vivo and stabilizes its multimerization on adjacent microsatellites”
